# Reference: PMC12040169 (PLOS Biology, 2025)
# The other results are listed elsewhere or left out.
# Tested on: T1, C. trachomatis L2/434/Bu expressing GFP (CTL2-GFP)
# T1 construct: L2/434/Bu GFP intracellular growth in HeLa cells
# Design: species or system HeLa; C. trachomatis total inclusion area by high-content imaging, normalised to DMSO
# Conditions: total inclusion area; 28.5 h, 10 µM; inhibitor
# Summary of the method: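 High-content images of fixed, Hoechst-stained infected cultures supply inclusion area and count (growth) plus nuclei number (viability), complementing bulk GFP/resorufin fluorescence. MIC determination is unchanged from the primary assay.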
row,SMILES,% of control remaining
1,c1csc(CCN2CCC3(CC2)OCCc2c3[nH]c3ccccc23)c1 [CBK040156],66.5372
2,COc1ccc(Nc2nc(N)nc(CSc3nncn3C)n2)cc1 [CBK266730],124.278
3,Cc1cccc(Oc2nc3c(C)cccn3c(=O)c2/C=C(\C#N)c2nc3ccccc3[nH]2)c1 [CBK266528],116.874
4,O=C(NCCC(=O)N1CCCCC1)c1cccc(OCc2cscn2)c1 [CBK306384],60.7522
5,Cc1nc(Nc2cccc(C3CCCN3C(=O)COc3ccc(F)cc3)n2)sc1C (stereo not drawn) [CBK286019],98.0558
6,O=C(c1ccccc1)N1CCCC(c2nccnc2-c2cccc(C(F)(F)F)c2)C1 (stereo not drawn) [CBK286218],96.0155
7,COc1ccc(S(=O)(=O)N2CCN(C)CC2)cn1 [CBK269511],73.4424
8,CC(C)c1noc(NCc2nnc3n2CCCCC3)n1 [CBK306352],52.7489
9,CC(C)(C)OC(=O)N1CCN(c2ccc(C(F)(F)F)c(Cl)n2)CC1 [CBK003030],56.6923
10,N=C1OC2CSCC2N1C(=O)Cc1ccc(F)cc1 (stereo not drawn) [CBK284515],76.0152
11,COc1ccc(N2C(=O)CC(NNC(=O)CNC(C)=O)C2=O)cc1 (stereo not drawn) [CBK267228],107.243
12,CC(C)N1CCCC(CNC(=O)c2cc(C3CCCCC3)no2)C1 (stereo not drawn) [CBK283294],91.236
13,CN1CCN(CCCCC2(C)SC(NC3CCCCCC3)=NC2=O)CC1 (stereo not drawn) [CBK113259],87.0311
14,Cc1c(NC(=O)c2cn3c4c(c(N5CCN(C)CC5)c(F)cc4c2=O)OCN3C)c(=O)n(-c2ccccc2)n1C [CBK263061],110.958
15,O=C1CCC(=O)N1CCOc1nccnc1OC1CCN(Cc2ccc([N+](=O)[O-])cc2)CC1 [CBK084343],93.498
16,O=C(O)c1cccc(N2C(=O)C3C(C2=O)C2(c4ccccc4)C(=O)C3(c3ccccc3)C(c3ccccc3)=C2c2ccccc2)c1 (stereo not drawn) [CBK262439],104.472
17,O=C(N1CCC(c2ccncc2)CC1)C1(c2ccccc2)CC1 [CBK285480],97.1098
18,C=CCn1c(Cc2csc(NC(=O)c3cccc(Cl)c3)n2)n[nH]c1=S [CBK295314],107.547
19,COc1ccccc1CN(C(=O)Nc1ccc(S(C)(=O)=O)cc1)C1CC1 [CBK305787],12.1181
20,CCCCc1nc(CS(=O)(=O)C(C)c2nc(C(C)C)no2)cs1 (stereo not drawn) [CBK305707],81.9555
21,CCOC(=O)C1CCCN(C(=O)Cn2ncc(Cl)c(Cl)c2=O)C1 (stereo not drawn) [CBK305573],8.692
